Values of other authors, collected in publication PMC11006913.
Residue numbers refer to the chain shown, from its start. Some of the results follow.

Assays:
Details in all cases: PBM; conditions not shown; double strand, one strand shown; scale: upbm affinity estimate (log intensity, higher = more binding, comparable within an allelic series)
[1] = target: ARX (Homo sapiens) (UniProt Q96QS3)
[2] = target: ARX L343Q (Homo sapiens) (UniProt Q96QS3)
[3] = target: ARX P353L (Homo sapiens) (UniProt Q96QS3)
[4] = target: ARX P353R (Homo sapiens) (UniProt Q96QS3)
[5] = target: ARX R332H (Homo sapiens) (UniProt Q96QS3)
[6] = target: ARX T333N (Homo sapiens) (UniProt Q96QS3)
[7] = target: T1, HESX1 E149K (Homo sapiens) (UniProt Q9UBX0)
T1 sequence: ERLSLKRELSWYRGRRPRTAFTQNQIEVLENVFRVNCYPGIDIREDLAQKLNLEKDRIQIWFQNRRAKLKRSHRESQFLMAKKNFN

[8] = target: T2, HESX1 N125S (Homo sapiens) (UniProt Q9UBX0)
T2 sequence: T1 sequence with N31S, K55E

[9] = target: T3, HESX1 R160C (Homo sapiens) (UniProt Q9UBX0)
T3 sequence: T1 sequence with K55E, R66C

[10] = target: PROP1 R112Q (Homo sapiens) (UniProt O75360)
[11] = target: PROP1 R99Q (Homo sapiens) (UniProt O75360)
[12] = target: ISX R83Q (Homo sapiens) (UniProt Q2M1V0)
Sequence of UniProt Q2M1V0 (Q2M1V0 69-154 R83Q): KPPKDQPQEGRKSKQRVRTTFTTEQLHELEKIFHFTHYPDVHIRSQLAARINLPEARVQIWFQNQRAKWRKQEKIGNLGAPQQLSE

Sequence	binding signal [1]	binding signal [2]	binding signal [3]	binding signal [4]	binding signal [5]	binding signal [6]	binding signal [7]	binding signal [8]	binding signal [9]	binding signal [10]	binding signal [11]	binding signal [12]
AATTATCT [8-mer AATTATCT]	12.6	10.9	12.1	10.8	11.1	11.8	11.4	11.6	10.3	12.6	12.1	
AATTAACC [8-mer AATTAACC]	12.7	10.8	12.1	10.7	10.9	11.9	11.3			12.6	12.1	13.3
ATTACTAG [8-mer ATTACTAG]	11.5	10.7	11.4	10.7	10.8	11.1				11.9	11.6	
GCGGACGC [8-mer GCGGACGC]	10.1	10.1	9.99	10.1	10.1	10.1						
ATCGAATC [8-mer ATCGAATC]	11.3	10.6		10.6								
